From the supplement of paper PMC8728848
The list shows a part of the results.

Columns and labels:
Test in all cases: glycan array binding signal (z-score within array); higher = stronger binding
Details in all cases: glycan notation: IUPAC condensed, linker removed
[1] = biological target: Gal(b1-4)GlcNAc(b1-2)Man(a1-6)[Man(a1-3)]Man(b1-4)GlcNAc(b1-4)GlcNAc
Procedure, shortened: (§1)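 Glycan array data were curated from 3228 arrays in the Consortium for Functional Glycomics database and kept only where the protein sequence was available. Glycan names were converted to IUPAC-condensed notation, and columns mapping to the same glycan were averaged. The binding signal is a within-array Z-score, averaged across arrays of the same protein sequence at different concentrations or buffers and across linkers. Negative Z-scores can be read as non-binding.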

[2] = biological target: Gal(b1-4)GlcNAc(b1-2)[Gal(b1-4)GlcNAc(b1-4)]Man(a1-3)[Gal(b1-4)GlcNAc(b1-2)Man(a1-6)]Man(b1-4)GlcNAc(b1-4)GlcNAc
Procedure, shortened: as §1

[3] = biological target: Gal(b1-4)GlcNAc(b1-2)[Gal(b1-4)GlcNAc(b1-4)]Man(a1-3)[Gal(b1-4)GlcNAc(b1-2)[Gal(b1-4)GlcNAc(b1-6)]Man(a1-6)]Man(b1-4)GlcNAc(b1-4)GlcNAc
Procedure, shortened: as §1

[4] = biological target: Gal(b1-4)GlcNAc(b1-2)[Gal(b1-4)GlcNAc(b1-4)]Man(a1-3)[GlcNAc(b1-4)][Gal(b1-4)GlcNAc(b1-2)Man(a1-6)]Man(b1-4)GlcNAc(b1-4)GlcNAc
Procedure, shortened: as §1

[5] = biological target: Gal(b1-4)GlcNAc(b1-2)[Gal(b1-4)GlcNAc(b1-4)]Man(a1-3)[GlcNAc(b1-4)][Gal(b1-4)GlcNAc(b1-2)[Gal(b1-4)GlcNAc(b1-6)]Man(a1-6)]Man(b1-4)GlcNAc(b1-4)GlcNAc
Procedure, shortened: as §1

[6] = biological target: Gal(b1-4)GlcNAc(b1-2)[Gal(b1-4)GlcNAc(b1-6)]Man(a1-6)[Gal(b1-4)GlcNAc(b1-2)Man(a1-3)]Man(b1-4)GlcNAc(b1-4)GlcNAc
Procedure, shortened: as §1

[7] = biological target: Gal(b1-4)GlcNAc(b1-2)[Gal(b1-4)GlcNAc(b1-6)]Man(a1-6)[Gal(b1-4)GlcNAc(b1-2)Man(a1-3)]Man(b1-4)GlcNAc(b1-4)[Fuc(a1-6)]GlcNAc
Procedure, shortened: as §1

[8] = biological target: Gal(b1-4)GlcNAc(b1-2)[Gal(b1-4)GlcNAc(b1-6)]Man(a1-6)[GlcNAc(b1-4)][Gal(b1-4)GlcNAc(b1-2)Man(a1-3)]Man(b1-4)GlcNAc(b1-4)GlcNAc
Procedure, shortened: as §1

[9] = biological target: Gal(b1-4)GlcNAc(b1-2)[Gal(b1-4)GlcNAc(b1-6)]Man(a1-6)[GlcNAc(b1-4)][Gal(b1-4)GlcNAc(b1-2)[Gal(b1-4)GlcNAc(b1-4)]Man(a1-3)]Man(b1-4)GlcNAc(b1-4)[Fuc(a1-6)]GlcNAc
Procedure, shortened: as §1

[10] = biological target: Gal(b1-4)GlcNAc(b1-3)Gal(b1-3)GalNAc
Procedure, shortened: as §1

[11] = biological target: Gal(b1-4)GlcNAc(b1-3)Gal(b1-3)GlcNAc
Procedure, shortened: as §1

[12] = biological target: Gal(b1-4)GlcNAc(b1-3)Gal(b1-4)Glc
Procedure, shortened: as §1

[13] = biological target: Gal(b1-4)GlcNAc(b1-3)Gal(b1-4)GlcNAc
Procedure, shortened: as §1

[14] = biological target: Gal(b1-4)GlcNAc(b1-3)Gal(b1-4)GlcNAc(b1-2)Man(a1-3)[Gal(b1-4)GlcNAc(b1-3)Gal(b1-4)GlcNAc(b1-2)Man(a1-6)]Man(b1-4)GlcNAc(b1-4)GlcNAc
Procedure, shortened: as §1

[15] = biological target: Gal(b1-4)GlcNAc(b1-3)Gal(b1-4)GlcNAc(b1-2)Man(a1-3)[Gal(b1-4)GlcNAc(b1-3)Gal(b1-4)GlcNAc(b1-2)Man(a1-6)]Man(b1-4)GlcNAc(b1-4)[Fuc(a1-6)]GlcNAc
Procedure, shortened: as §1

[16] = biological target: Gal(b1-4)GlcNAc(b1-3)Gal(b1-4)GlcNAc(b1-2)[Gal(b1-4)GlcNAc(b1-3)Gal(b1-4)GlcNAc(b1-6)]Man(a1-6)[Gal(b1-4)GlcNAc(b1-3)Gal(b1-4)GlcNAc(b1-2)Man(a1-3)]Man(b1-4)GlcNAc(b1-4)GlcNAc
Procedure, shortened: as §1

[17] = biological target: Gal(b1-4)GlcNAc(b1-3)Gal(b1-4)GlcNAc(b1-2)[Gal(b1-4)GlcNAc(b1-3)Gal(b1-4)GlcNAc(b1-6)]Man(a1-6)[Gal(b1-4)GlcNAc(b1-3)Gal(b1-4)GlcNAc(b1-2)Man(a1-3)]Man(b1-4)GlcNAc(b1-4)[Fuc(a1-6)]GlcNAc
Procedure, shortened: as §1

[18] = biological target: Gal(b1-4)GlcNAc(b1-3)Gal(b1-4)GlcNAc(b1-3)Gal(b1-4)GlcNAc
Procedure, shortened: as §1

B1: PX9937F-bfa-516-16-516 (Bacteroides fragilis) (protein)
chain: LDIDPTSSIADSNYWKTEAQFSTFNVGLHALLRECSFNFFLLGEPRADIYGDVPFGGEATQGMERLPFNTINKENTGISNFAGMYKVINQINLMIAKTKETTVLSEAGKNYYLGEAYGMRAYLYFHLLRSWGDVILYLDYTNGASLDLSNLSKAASPAEEVMKQIKEDITASEKGFGSDYSFKYGRYYWSMAATQMLKGEVYLWSGRQMGGGTADYTTAKTALQSIVSNANVSLQDDFSKVFAYNNKDNSEIIFSIRNAKDEYNMWDDRFRQNLVPQQAYMTSTYCNKEGVSFKDLPEGQLNGLIRLQIRYDLYNKAFRDGDTRKDASMTAVYQKQQDGTVKYIAPFCNKYQGVLLDGASQRSFLNDYPIYRYADCLLLLAEAKALLGEDPTAEINQVRERAYGKEFFEANKATLAYPNDKGDFYTDNKYMSGDEDPLEAILKERMREFMFEGKRWYDLRLLGADYVTKRTSAVATRLLWPINESVLTDNPALKQTPGYQN
glycan array binding signal (z-score) [1]: 0.041
glycan array binding signal (z-score) [2]: 0.394
glycan array binding signal (z-score) [3]: -0.256
glycan array binding signal (z-score) [4]: -0.31
glycan array binding signal (z-score) [5]: 0.064
glycan array binding signal (z-score) [6]: -0.096
glycan array binding signal (z-score) [7]: -0.292
glycan array binding signal (z-score) [8]: -0.338
glycan array binding signal (z-score) [9]: -0.168
glycan array binding signal (z-score) [10]: -0.111
glycan array binding signal (z-score) [11]: -0.284
glycan array binding signal (z-score) [12]: -0.069
glycan array binding signal (z-score) [13]: -0.274
glycan array binding signal (z-score) [14]: 0.196
glycan array binding signal (z-score) [15]: 0.176
glycan array binding signal (z-score) [16]: 0.059
glycan array binding signal (z-score) [17]: 0.098
glycan array binding signal (z-score) [18]: -0.356
